This is one part of the list. At the low end of the ranking the order means little.

This is an account of results in publication PMC10668032.

The assay addresses SIX1 homeodomain (reference allele) (UniProt Q15475). Briefly: universal protein binding microarray. Particulars: Universal all-10-mer PBM (8x60K, AMADID 030236), 300 nM GST-tagged protein, Alexa Fluor 488 anti-GST; buffer, salt, pH and temperature not stated; high values mean tight binding; most listed sequences are background and not binding sites; double strand, one strand shown.
As to ACAGTATG, the binding signal is -0.039 E-score.
As to AAGGGGGC, the binding signal was -0.033 E-score.
The figure for ACAATTAT is -0.0266 E-score.
The figure for AGTCTCGG is 0.0952 E-score; for ACAACTAT it is -0.069 E-score; for AGTTTCAG it is -0.265 E-score.
The figure for GCTGCCAA is -0.204 E-score; for CTAGAACC it is -0.0929 E-score.
CAGGCAGA: the binding signal worked out at 0.0477 E-score.
As to ACTTCCTA, the binding signal was -0.0569 E-score.
Then GTTAGCCA, with -0.15 E-score; and AAGGAGCG, with -0.0914 E-score; and AGTTTATG, with -0.118 E-score.
With ACTGGACG, the binding signal is -0.0844 E-score.
On to CGCTGGCA, for which the binding signal came out at 0.0153 E-score.
Then AGCTGGTA, with 0.0486 E-score; and TACTCTGA, with 0.0508 E-score; and GCGGGAGA, with 0.0155 E-score.
The figure for CCACCGAA is -0.0521 E-score.
Then ATCAGTTC, with 0.0601 E-score; and GTATCTAA, with 0.374 E-score; and CCTTACAA, with -0.175 E-score.
In the case of GATTTGGA, the binding signal was -0.0655 E-score.
Take CCTGGCAG: the binding signal is -0.121 E-score.
The figure for AGTTTTTA is -0.185 E-score; for AACACGTG it is -0.0953 E-score.
The figure for AACGACCT is -0.101 E-score.
With AGTGTTGA, the binding signal is -0.0781 E-score.
Regarding CGTCATGC, the binding signal was -0.0345 E-score.
The figure for GCGGGACA is -0.0765 E-score; for GCATAGTA it is 0.102 E-score; for CTAGGCAG it is -0.299 E-score.
Then GCTCCACA, with -0.138 E-score.
In the case of AGTCTGTG, the binding signal is -0.16 E-score.
The figure for AACTGGCT is -0.151 E-score; for AGAGTCTC it is -0.136 E-score; for CCTTTAAC it is -0.094 E-score.
The figure for AATGACAA is -0.16 E-score; for CACTTCCG it is -0.0971 E-score.
The figure for AGATATAT is 0.337 E-score.
Consider AGGTTGGG, for which the binding signal is -0.212 E-score.
Then ATGTATGC, with -0.081 E-score.
The figure for CGCTGCGA is -0.15 E-score; for GCAGATCC it is 0.272 E-score; for GTTTTATA it is 0.0828 E-score.
The figure for AGTCTTGC is -0.208 E-score.
On to AAGGCTCG, for which the binding signal is -0.135 E-score.
As for ACTGGCTC, the binding signal was -0.118 E-score.
Then AGCTCACT, with -0.049 E-score.
As to CGAACTGA, the binding signal was -0.0458 E-score.
The figure for ATATGCGA is 0.276 E-score; for AGGGAGAG it is -0.144 E-score; for AACGACCG it is -0.149 E-score.
The figure for CATTTTTA is -0.183 E-score.
Then CTAGCTGC, with -0.278 E-score.
As for AATGGAGC, the binding signal is -0.0626 E-score.
The figure for ACCTACAA is -0.164 E-score; for AACCTTGC it is -0.139 E-score; for CTATTTCA it is 0.101 E-score.
The figure for GACTGCCC is -0.309 E-score; for AATTTATA it is 0.0543 E-score; for AAGACCCG it is -0.0797 E-score.
As for CACGCAGG, the binding signal worked out at 0.0831 E-score.
The figure for ACGTGGAA is -0.225 E-score; for CTACGTAG it is -0.168 E-score.
For TAAGAGCA, the binding signal is 0.141 E-score.
Then ACGCTCCA, with -0.136 E-score; and CGTCGACG, with -0.302 E-score; and ACGTTGGA, with -0.065 E-score.
The figure for AAATGAGG is -0.148 E-score; for CCAACCTC it is 0.0084 E-score; for ATGGCGGG it is 0.128 E-score.
The figure for AGATGTAA is 0.0301 E-score; for CTCATTCA it is -0.197 E-score.
On to ACACGTCG, for which the binding signal is -0.289 E-score.
Then AGGGTGAC, with -0.119 E-score; and TCACCGAA, with 0.0155 E-score; and CGTCAAAC, with -0.0201 E-score.
Then GCTGCTTA, with -0.0968 E-score; and CAGCTTGA, with 0.00556 E-score; and GATGAGAA, with 0.132 E-score.
Then GAGCCCAA, with -0.194 E-score; and ACAGATAA, with -0.00551 E-score.
Consider CAAGACGC, for which the binding signal is -0.0173 E-score.
For the sequence AATGGCGG, the binding signal was -0.0358 E-score.
The figure for GCGGCAGC is -0.175 E-score; for GCTTGCGA it is -0.068 E-score; for AGAATGTA it is -0.16 E-score.
Then CTCCTCAG, with 0.113 E-score; and ACCTTTGC, with -0.118 E-score; and CCGCACTA, with 0.0139 E-score.
The figure for AGTGATAA is 0.0438 E-score; for AAACGGGT it is 0.108 E-score; for CAAACGCA it is 0.00808 E-score.
With GGATATGA, the binding signal turned out to be 0.356 E-score.
The figure for GGTGGCAA is -0.219 E-score; for AGTCCGCG it is -0.0651 E-score.
GCAGGCGA: the binding signal was -0.121 E-score.
Then AAACCATT, with -0.0781 E-score; and ATGGTCTG, with -0.0342 E-score.
The figure for GAGAAGGA is 0.124 E-score; for AGGGTTTC it is 0.0777 E-score.
On to CACGTCAC, for which the binding signal is -0.156 E-score.
Then CTGGGTAA, with 0.061 E-score; and CCACCAGG, with -0.135 E-score.
For the sequence AAGAGTCA, the binding signal is -0.205 E-score.
Then ATGGACCC, with -0.129 E-score; and AGTTGGAA, with -0.242 E-score; and ATAGTTGA, with 0.0312 E-score.
Then TAGCCGAA, with 0.0577 E-score.
The figure for AGCTGGGG is 0.00877 E-score; for GCCCCGGA it is 0.108 E-score.
In the case of GTAGAGCA, the binding signal was -0.0809 E-score.
With ATAGGCAA, the binding signal was -0.113 E-score.
The figure for GCAGGACA is -0.181 E-score; for ATACACGA it is 0.234 E-score; for GTGATCTA it is 0.298 E-score.
The figure for ATATCTCC is 0.424 E-score; for ATAAACTA it is 0.0853 E-score.
Then ATCCGCTA, with 0.243 E-score; and TGAACTCA, with -0.0652 E-score; and GTACTCAA, with 0.0508 E-score.
Take CGGTCTTC: the binding signal is -0.098 E-score.
Then GGTGTCAA, with 0.454 E-score.
Turning to ACAAGGAT, the binding signal was 0.262 E-score.
Then AACTAAAC, with -0.0284 E-score.
The figure for ATCTAGAG is 0.15 E-score; for GCACGTAA it is -0.277 E-score; for ACTCATAG it is -0.0321 E-score.
Then ATAGGTTA, with 0.189 E-score; and ATATTGGC, with 0.19 E-score.
As to GCGATGCA, the binding signal came to 0.0435 E-score.
Then GACTTCTC, with -0.253 E-score; and CACCACCA, with 0.125 E-score.
Take ATTCGGTA: the binding signal was determined as 0.211 E-score.
Then CCCAGCGA, with 0.015 E-score; and TTAATGAA, with -0.00403 E-score; and GAACCTTA, with -0.0998 E-score.
Then GAGATCGA, with 0.271 E-score.
As for GAAGATCC, the binding signal came out at 0.297 E-score.
The figure for ACCATCTC is 0.0818 E-score; for ATAAGTGG it is -0.00345 E-score; for CGTGATAA it is 0.0413 E-score.
Then AGAGCTTC, with -0.0935 E-score; and CCGCCCAC, with -0.0409 E-score.
Then CCGCCGGC, with 0.0122 E-score.
For the sequence AAGGCGCC, the binding signal is -0.125 E-score.
For CCGTAGAA, the binding signal is -0.17 E-score.
Then ACTTCAAT, with -0.0267 E-score.
Turning to ATGCCAAG, the binding signal is 0.0457 E-score.
Then TCGAACCA, with -0.25 E-score; and GGGGATGA, with 0.267 E-score.
The figure for AACTCATG is -0.116 E-score; for ATCTTTTC it is -0.0488 E-score; for CAGAGGTA it is 0.054 E-score.
With ACGTGCAT, the binding signal worked out at 0.0421 E-score.
For TTCAGCAA, the binding signal is -0.138 E-score.
The figure for CAAGCTGC is -0.313 E-score.
In the case of GGGGCCCA, the binding signal was -0.128 E-score.
The figure for CGTGCTTC is -0.0852 E-score.
Then CCCGGGTC, with 0.288 E-score; and AGCGCATA, with 0.0805 E-score.
Then CACGTTAA, with -0.197 E-score; and AAAGGGAA, with -0.164 E-score.
Consider CCCTGACG, for which the binding signal stood at 0.0323 E-score.
For GCTGTCCC, the binding signal is -0.0456 E-score.
The figure for CCCTCTCC is -0.000905 E-score; for ACAATTCC it is -0.132 E-score.
The figure for GAACCGCA is -0.215 E-score; for GCGCCCTA it is -0.114 E-score; for CGTAGAGA it is -0.134 E-score.
The figure for AGGGGACC is -0.0917 E-score; for GGAACGTA it is -0.014 E-score; for CGGCATCA it is 0.0641 E-score.
For GTACGAAA, the binding signal is -0.244 E-score.
The figure for CAACGCTA is -0.206 E-score; for AGCAGACT it is -0.181 E-score; for CCGAATTA it is -0.0101 E-score.
Then AGGACGAG, with -0.0876 E-score; and TAAGCTTA, with -0.0651 E-score; and CATTAAGA, with -0.0476 E-score.
Then CCATAGGG, with 0.162 E-score.
Consider GGTTTGGA, for which the binding signal was -0.0591 E-score.
Turning to ACACGTGA, the binding signal worked out at 0.0346 E-score.
The figure for AATGGTAG is -0.144 E-score; for GGAGCCGA it is 0.0197 E-score.
The figure for AATTTTTC is -0.246 E-score.
The figure for CAAACGGG is 0.0338 E-score; for AATATATC it is 0.343 E-score.
Consider CCTCGCTA, for which the binding signal was 0.0787 E-score.
Turning to GCGAGGAC, the binding signal is -0.311 E-score.
The figure for AACCCCCC is 0.0227 E-score.
The figure for AATGATCG is 0.152 E-score; for CCTATAGC it is 0.0354 E-score.
In the case of CAAAGACA, the binding signal is -0.115 E-score.
The figure for CACTTGTA is -0.085 E-score.
Then GTTGTGTA, with 0.0531 E-score; and AAATTCCA, with -0.257 E-score.
The figure for GCTACAGC is -0.24 E-score; for GAGTCAGA it is 0.00829 E-score; for CCAGCACC it is -0.174 E-score.
Take ACGTGCAC: the binding signal was -0.277 E-score.
The figure for AATCGGGT is 0.0616 E-score; for CCCAGCAC it is -0.0219 E-score.
On to AGGTATCC, for which the binding signal came out at 0.461 E-score.
Take AGGAGCCG: the binding signal came to 0.0792 E-score.
As to CGGTCTGA, the binding signal was found to be 0.057 E-score.
Then CTGAAGCA, with -0.223 E-score.
Then CATCAACC, with -0.0663 E-score.
For ATAAAGCG, the binding signal was -0.0482 E-score.
Then GAGCTGAC, with 0.0148 E-score.
The figure for GGCCGCGA is -0.235 E-score.
Regarding ATTGTGGC, the binding signal was -0.0908 E-score.
On to AGATCTGA, for which the binding signal stood at 0.248 E-score.
The figure for CTGGGACA is -0.00937 E-score; for GAAGATAC it is 0.354 E-score; for CTGAACAA it is -0.118 E-score.
The figure for AATAGGCC is -0.215 E-score.
Then GGTCGTTA, with -0.0446 E-score.
